Source: US11000038B2, “Pyridone compounds and agricultural and horticultural fungicides containing the same as active ingredients” (priority 2017, dated 2021)

Assays:
[1] = tested on: barley powdery mildew fungi (Blumeria graminis f. sp. hordei); test: Test Example D: barley powdery mildew, spray treatment of barley plants; conditions: barley powdery mildew, spray treatment
[2] = tested on: grape downy mildew fungus (Plasmopara viticola); test: Test Example G: grape downy mildew, spray treatment of grape plants; conditions: grape downy mildew, 250 ppm spray, 7 to 10 days after inoculation
[3] = tested on: gray mold fungi (Botrytis cinerea); test: Test Example B: tomato gray mold, spray treatment of tomato plants; conditions: tomato gray mold, spray treatment
[4] = tested on: wheat brown rust fungi (Puccinia recondita); test: Test Example E: wheat brown rust, spray treatment of wheat plants; assay type: in vivo; conditions: wheat brown rust, spray treatment
[5] = tested on: cabbage Alternaria sooty spot fungi (Alternaia brassicicola); test: Test Example C: cabbage Alternaria sooty spot, spray treatment of cabbage plants; assay type: in vivo; conditions: cabbage Alternaria sooty spot, spray treatment
Excerpt: [Test Example C] Cabbage Alternaria Sooty Spot
Test plants (cabbage variety: Shikidori) were cultivated until the cotyledons extended after the sowing of seeds.
<Control Value> Control value=100{1−(n/3)}

O=c1c(Br)cn(-c2ccccc2)c(-c2ccc(F)cc2Br)c1Cl [Compound 569]
Test D control value [1]: L (L shows the control value of 50% or less)
Test G control value [2]: L (L shows the control value of 50% or less)
Test B control value [3]: H (H shows the control value of more than 50%)
Test E control value [4]: H (H shows the control value of more than 50%)
Test C control value [5]: H (H shows the control value of more than 50%)

CCc1c(-c2c(F)cc(F)cc2F)n(-c2cc(Cl)ccc2C)cc(C)c1=O [Compound 570]
Test D control value [1]: H (H shows the control value of more than 50%)
Test G control value [2]: L (L shows the control value of 50% or less)
Test B control value [3]: H (H shows the control value of more than 50%)
Test E control value [4]: H (H shows the control value of more than 50%)
Test C control value [5]: H (H shows the control value of more than 50%)

Cc1cc(F)ccc1-c1c(C)c(=O)c(C)cn1-c1ccccc1 [Compound 571]
Test D control value [1]: H (H shows the control value of more than 50%)
Test G control value [2]: L (L shows the control value of 50% or less)
Test B control value [3]: H (H shows the control value of more than 50%)
Test E control value [4]: H (H shows the control value of more than 50%)
Test C control value [5]: H (H shows the control value of more than 50%)

CCc1c(-c2ccccc2)n(-c2cc(F)ccc2C)cc(C)c1=O [Compound 573]
Test D control value [1]: H (H shows the control value of more than 50%)
Test G control value [2]: L (L shows the control value of 50% or less)
Test B control value [3]: H (H shows the control value of more than 50%)
Test E control value [4]: H (H shows the control value of more than 50%)
Test C control value [5]: H (H shows the control value of more than 50%)

O=c1c(Br)cn(-c2ccccc2)c(-c2ccccc2Cl)c1Cl [Compound 574]
Test D control value [1]: L (L shows the control value of 50% or less)
Test G control value [2]: L (L shows the control value of 50% or less)
Test B control value [3]: H (H shows the control value of more than 50%)
Test E control value [4]: H (H shows the control value of more than 50%)
Test C control value [5]: H (H shows the control value of more than 50%)

Cc1cn(-c2ccccc2)c(-c2ccccc2Cl)c(C)c1=O [Compound 575]
Test D control value [1]: L (L shows the control value of 50% or less)
Test G control value [2]: L (L shows the control value of 50% or less)
Test B control value [3]: H (H shows the control value of more than 50%)
Test E control value [4]: H (H shows the control value of more than 50%)
Test C control value [5]: H (H shows the control value of more than 50%)

Cc1cn(-c2ccccc2)c(-c2ccccc2Br)c(C)c1=O [Compound 578]
Test D control value [1]: L (L shows the control value of 50% or less)
Test G control value [2]: L (L shows the control value of 50% or less)
Test B control value [3]: H (H shows the control value of more than 50%)
Test E control value [4]: H (H shows the control value of more than 50%)
Test C control value [5]: H (H shows the control value of more than 50%)

Cc1ccccc1-c1c(Cl)c(=O)c(Br)cn1-c1ccccc1 [Compound 579]
Test D control value [1]: L (L shows the control value of 50% or less)
Test G control value [2]: L (L shows the control value of 50% or less)
Test B control value [3]: H (H shows the control value of more than 50%)
Test E control value [4]: H (H shows the control value of more than 50%)
Test C control value [5]: H (H shows the control value of more than 50%)

Cc1ccccc1-c1c(C)c(=O)c(C)cn1-c1ccccc1 [Compound 580]
Test D control value [1]: L (L shows the control value of 50% or less)
Test G control value [2]: H (H shows the control value of more than 50%)
Test B control value [3]: H (H shows the control value of more than 50%)
Test E control value [4]: H (H shows the control value of more than 50%)
Test C control value [5]: H (H shows the control value of more than 50%)

Cc1cn(-c2ccccc2)c(-c2ccccc2C(F)(F)F)c(C)c1=O [Compound 581]
Test D control value [1]: L (L shows the control value of 50% or less)
Test G control value [2]: L (L shows the control value of 50% or less)
Test B control value [3]: H (H shows the control value of more than 50%)
Test E control value [4]: H (H shows the control value of more than 50%)
Test C control value [5]: H (H shows the control value of more than 50%)

COc1ccccc1-c1c(C)c(=O)c(C)cn1-c1ccccc1 [Compound 582]
Test D control value [1]: L (L shows the control value of 50% or less)
Test G control value [2]: L (L shows the control value of 50% or less)
Test B control value [3]: L (L shows the control value of 50% or less)
Test E control value [4]: L (L shows the control value of 50% or less)
Test C control value [5]: H (H shows the control value of more than 50%)

Cc1cc(F)ccc1-c1c(Cl)c(=O)c(Br)cn1-c1ccccc1 [Compound 583]
Test D control value [1]: L (L shows the control value of 50% or less)
Test G control value [2]: L (L shows the control value of 50% or less)
Test B control value [3]: H (H shows the control value of more than 50%)
Test E control value [4]: H (H shows the control value of more than 50%)
Test C control value [5]: H (H shows the control value of more than 50%)

Cc1cc(F)ccc1-c1c(Br)c(=O)c(Br)cn1-c1ccccc1 [Compound 584]
Test D control value [1]: L (L shows the control value of 50% or less)
Test G control value [2]: L (L shows the control value of 50% or less)
Test B control value [3]: H (H shows the control value of more than 50%)
Test E control value [4]: H (H shows the control value of more than 50%)
Test C control value [5]: H (H shows the control value of more than 50%)

Cc1cn(-c2ccccc2)c(-c2ccc(F)cc2Br)c(C)c1=O [Compound 585]
Test D control value [1]: L (L shows the control value of 50% or less)
Test G control value [2]: L (L shows the control value of 50% or less)
Test B control value [3]: H (H shows the control value of more than 50%)
Test E control value [4]: H (H shows the control value of more than 50%)
Test C control value [5]: H (H shows the control value of more than 50%)

Cc1cn(-c2ccccc2)c(-c2ccc(Cl)cc2F)c(C)c1=O [Compound 586]
Test D control value [1]: H (H shows the control value of more than 50%)
Test G control value [2]: H (H shows the control value of more than 50%)
Test B control value [3]: H (H shows the control value of more than 50%)
Test E control value [4]: H (H shows the control value of more than 50%)
Test C control value [5]: H (H shows the control value of more than 50%)

O=c1c(Br)cn(-c2ccccc2)c(-c2ccc(Cl)cc2F)c1Cl [Compound 587]
Test D control value [1]: L (L shows the control value of 50% or less)
Test G control value [2]: L (L shows the control value of 50% or less)
Test B control value [3]: L (L shows the control value of 50% or less)
Test E control value [4]: H (H shows the control value of more than 50%)
Test C control value [5]: H (H shows the control value of more than 50%)

O=c1c(Br)cn(-c2ccccc2)c(-c2ccc(Cl)cc2Cl)c1Cl [Compound 588]
Test D control value [1]: L (L shows the control value of 50% or less)
Test G control value [2]: H (H shows the control value of more than 50%)
Test B control value [3]: H (H shows the control value of more than 50%)
Test E control value [4]: H (H shows the control value of more than 50%)
Test C control value [5]: H (H shows the control value of more than 50%)

Cc1cn(-c2ccccc2)c(-c2c(F)cccc2Cl)c(C)c1=O [Compound 589]
Test D control value [1]: H (H shows the control value of more than 50%)
Test G control value [2]: L (L shows the control value of 50% or less)
Test B control value [3]: H (H shows the control value of more than 50%)
Test E control value [4]: H (H shows the control value of more than 50%)
Test C control value [5]: H (H shows the control value of more than 50%)

O=c1c(Br)cn(-c2ccccc2)c(-c2c(F)cccc2Cl)c1Cl [Compound 590]
Test D control value [1]: L (L shows the control value of 50% or less)
Test G control value [2]: L (L shows the control value of 50% or less)
Test B control value [3]: H (H shows the control value of more than 50%)
Test E control value [4]: H (H shows the control value of more than 50%)
Test C control value [5]: H (H shows the control value of more than 50%)

Cc1c(-c2ccc(F)cc2F)n(-c2ccccc2)cc(Br)c1=O [Compound 592]
Test D control value [1]: L (L shows the control value of 50% or less)
Test G control value [2]: L (L shows the control value of 50% or less)
Test B control value [3]: H (H shows the control value of more than 50%)
Test E control value [4]: H (H shows the control value of more than 50%)
Test C control value [5]: H (H shows the control value of more than 50%)

Cc1c(-c2ccc(F)cc2F)n(-c2ccccc2)cc(I)c1=O [Compound 593]
Test D control value [1]: L (L shows the control value of 50% or less)
Test G control value [2]: L (L shows the control value of 50% or less)
Test B control value [3]: H (H shows the control value of more than 50%)
Test E control value [4]: L (L shows the control value of 50% or less)
Test C control value [5]: H (H shows the control value of more than 50%)

COc1ccc(-c2c(C)c(=O)c(C)cn2-c2ccccc2)c(Br)c1 [Compound 594]
Test D control value [1]: L (L shows the control value of 50% or less)
Test G control value [2]: H (H shows the control value of more than 50%)
Test B control value [3]: H (H shows the control value of more than 50%)
Test E control value [4]: H (H shows the control value of more than 50%)
Test C control value [5]: H (H shows the control value of more than 50%)
